Assay results reported in the supplement of paper PMC4996465.
Viability of KB3-1 and Nalm-6 cells after 48 h of drug alone (CellTiter-Glo), 11 doses over about 4.5 log units. % of DMSO wells, lower = more cell loss; AC50 from the fitted curve, lower = more potent. No active / inactive call. Nalm-6 was screened in two runs. AC50 is listed only for well-fitted inhibitory curves. KB3-1 is a HeLa-derived carcinoma line, Nalm-6 a B-cell precursor leukaemia line.

Tests used:
KB3-1 = assay: viability (% of DMSO control); higher = more viable cells
Description: (§1)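 Eleven-dose screen of the NCATS MIPE 3 library on cells without co-treatment; CellTiter-Glo after 48 h, as % of DMSO wells.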

Nalm-6 = assay: as above
Description: as §1

| Compound | viability (KB3-1; 0.00078 µM) [%] | viability (KB3-1; 0.00234 µM) [%] | viability (KB3-1; 0.00702 µM) [%] | viability (KB3-1; 0.0211 µM) [%] | viability (KB3-1; 0.0632 µM) [%] | viability (KB3-1; 0.19 µM) [%] | viability (KB3-1; 0.569 µM) [%] | viability (KB3-1; 1.71 µM) [%] | viability (KB3-1; 5.12 µM) [%] | viability (KB3-1; 15.4 µM) [%] | viability (KB3-1; 46.1 µM) [%] | viability (Nalm-6; run: 1, 0.00078 µM) [%] | viability (Nalm-6; run: 1, 0.00234 µM) [%] | viability (Nalm-6; run: 1, 0.00702 µM) [%] | viability (Nalm-6; run: 1, 0.0211 µM) [%] | viability (Nalm-6; run: 1, 0.0632 µM) [%] | viability (Nalm-6; run: 1, 0.19 µM) [%] | viability (Nalm-6; run: 1, 0.569 µM) [%] | viability (Nalm-6; run: 1, 1.71 µM) [%] | viability (Nalm-6; run: 1, 5.12 µM) [%] | viability (Nalm-6; run: 1, 15.4 µM) [%] | viability (Nalm-6; run: 1, 46.1 µM) [%] | viability (Nalm-6; run: 2, 0.00078 µM) [%] | viability (Nalm-6; run: 2, 0.00234 µM) [%] | viability (Nalm-6; run: 2, 0.00702 µM) [%] | viability (Nalm-6; run: 2, 0.0211 µM) [%] | viability (Nalm-6; run: 2, 0.0632 µM) [%] | viability (Nalm-6; run: 2, 0.19 µM) [%] | viability (Nalm-6; run: 2, 0.569 µM) [%] | viability (Nalm-6; run: 2, 1.71 µM) [%] | viability (Nalm-6; run: 2, 5.12 µM) [%] | viability (Nalm-6; run: 2, 15.4 µM) [%] | viability (Nalm-6; run: 2, 46.1 µM) [%] |
| --- | --- | --- | --- | --- | --- | --- | --- | --- | --- | --- | --- | --- | --- | --- | --- | --- | --- | --- | --- | --- | --- | --- | --- | --- | --- | --- | --- | --- | --- | --- | --- | --- | --- |
| CS(=O)(=O)Oc1ccc2c(NC(N)=O)c(C(=O)c3ccc(Cl)cc3Cl)oc2c1 [Lirimilast] | 100 | 99.7 | 107 | 104 | 108 | 103 | 108 | 102 | 103 | 105 | 93 | 86.6 | 102 | 110 | 109 | 101 | 104 | 110 | 115 | 115 | 115 | 78.8 | 106 | 108 | 115 | 115 | 105 | 112 | 111 | 108 | 109 | 108 | 98.1 |
| O=C(O)c1nn(Cc2ccc(Cl)cc2Cl)c2ccccc12 [Lonidamine] | 102 | 104 | 103 | 101 | 98.6 | 104 | 101 | 98 | 99.5 | 99.5 | 91.8 | 114 | 110 | 120 | 113 | 107 | 113 | 103 | 107 | 110 | 90.5 | 86.4 | 107 | 104 | 103 | 106 | 103 | 103 | 102 | 103 | 101 | 103 | 96.7 |
| CNC(=O)c1ccc(N2C(=S)N(c3ccc(C#N)c(C(F)(F)F)c3)C(=O)C2(C)C)cc1F [MDV-3100] | 96.4 | 100 | 102 | 106 | 108 | 103 | 96.9 | 95.8 | 98.2 | 93.6 | 73.9 | 66.4 | 77.2 | 88.3 | 97 | 99.5 | 109 | 104 | 104 | 106 | 97.2 | 78 | 106 | 106 | 104 | 112 | 106 | 110 | 110 | 101 | 107 | 102 | 87.8 |
| C1Cc2[nH]nc(-c3nn[nH]n3)c2C1 [MK-0354] | 102 | 110 | 112 | 110 | 107 | 105 | 111 | 108 | 106 | 104 | 104 | 110 | 126 | 125 | 121 | 129 | 114 | 128 | 119 | 117 | 111 | 101 | 111 | 116 | 109 | 109 | 111 | 106 | 111 | 104 | 108 | 104 | 106 |
